Read-outs that look alike come from different tables or passages of the source.
Assays:
[1] = system: Mouse Renal Ornithine Decarboxylase (ODC) Activity; type: in vivo; details: for inhibition of TP-induced ODC activity (in words): testosterone propionate 0.1 mg/mouse; for % Inhibition of ODC Activity: with TP 0.1 mg/mouse/day s.c.
[2] = system: Mouse Renal Ornithine Decarboxylase (ODC) Activity; type: in vivo

Structure (SMILES) | inhibition of TP-induced ODC activity (in words) [1] | % Inhibition of ODC Activity ([1]; 1 mg/mouse, 1 day p.o.) [%] | % Inhibition of ODC Activity ([1]; 1 mg/mouse, 1 day s.c.) [%] | further results
CC(=O)O[C@]1(C(C)=O)CC[C@H]2[C@@H]3C=C(Cl)C4=CC(=O)[C@@H]5C[C@@H]5[C@]4(C)[C@H]3CC[C@@]21C [Cyproterone acetate, cyproterone acetate] | inhibited this induction | – | – | –
CCC1(CC)CCc2cc3c(C(F)(F)F)c(F)c(=O)[nH]c3cc2N1 [Compound 120, 2,2-Diethyl-7-fluoro-1,2,3,4-tetrahydro-6-trifluoromethyl-8-pyridono[5,6-g]quinoline] | – | 46 | 52 | –
CC(C)C(=O)Nc1ccc([N+](=O)[O-])c(C(F)(F)F)c1 [Flutamide, 2-methyl-N-[4-nitro-3-(trifluoromethyl)phenyl]propanamide] | inhibited this induction | 37.7 | 88.3 | % Inhibition of ODC Activity ([1]; 1 mg/mouse, 3 days p.o.): 60.7%; % Inhibition of ODC Activity ([1]; 3 mg/mouse, 1 day s.c.): 98.1%; % Inhibition of ODC Activity ([1]; 3 mg/mouse, 3 days p.o.): 92.0%
CC(O)(CS(=O)(=O)c1ccc(F)cc1)C(=O)Nc1ccc(C#N)c(C(F)(F)F)c1 (stereo not drawn) [Casodex] | inhibited this induction | – | – | –
CC12CCCN1c1cc3[nH]c(=O)c(F)c(C(F)(F)F)c3cc1CC2 (racemic) [Compound 102, (R/S)-3-Fluoro-6,7,7a,11-tetrahydro-7a-methyl-4-trifluoromethyl-2-pyridono[5,6-g]pyrrolidino[1,2-a]quinoline] | – | −5.2 | – | –
CCC(=O)O[C@H]1CC[C@H]2[C@@H]3CCC4=CC(=O)CC[C@]4(C)[C@H]3CC[C@]12C [Testosterone Propionate, Testosterone propionate] | – | – | – | increase in ODC activity compared to castrated controls ([2]; 1.0 mg/mouse/day): 700 fold
Cn1c(=O)c(F)c(C(F)(F)F)c2cc3c(cc21)NC(C)(C)CC3 [Compound 107, 7-Fluoro-1,2,3,4-tetrahydro-2,2,9-trimethyl-6-trifluoromethyl-8-pyridono[5,6-g]quinoline] | – | 42 | 72 | –
CC(=O)[C@H]1CC[C@H]2[C@@H]3CCC4=CC(=O)CC[C@]4(C)[C@H]3CC[C@]12C [Prog, progesterone] | – | – | – | stimulatory activity on renal ODC (in words) ([2]; estradiol 0.02 mg/mouse, progesterone 1 mg/mouse): did not show any stimulatory activity
